Screen size: about 100,000 compounds; about 250 (0.25%) were called active. The shares of active, inactive and inconclusive entries below differ from those in the screen. Calls come from the whole dose curve; as a rule, active = well fitted inhibition curve with a large enough effect; inconclusive = small, poorly fitted or top-dose-only effect; inactive = flat fitted curve, though single readings scatter. Potencies of inconclusive entries are left out as doubtful fits.
Biological target: Alanine aminotransferase 2 (Homo sapiens) (UniProt Q8TD30)
UniProt Q8TD30, sequence (Q8TD30 whole entry, looked up): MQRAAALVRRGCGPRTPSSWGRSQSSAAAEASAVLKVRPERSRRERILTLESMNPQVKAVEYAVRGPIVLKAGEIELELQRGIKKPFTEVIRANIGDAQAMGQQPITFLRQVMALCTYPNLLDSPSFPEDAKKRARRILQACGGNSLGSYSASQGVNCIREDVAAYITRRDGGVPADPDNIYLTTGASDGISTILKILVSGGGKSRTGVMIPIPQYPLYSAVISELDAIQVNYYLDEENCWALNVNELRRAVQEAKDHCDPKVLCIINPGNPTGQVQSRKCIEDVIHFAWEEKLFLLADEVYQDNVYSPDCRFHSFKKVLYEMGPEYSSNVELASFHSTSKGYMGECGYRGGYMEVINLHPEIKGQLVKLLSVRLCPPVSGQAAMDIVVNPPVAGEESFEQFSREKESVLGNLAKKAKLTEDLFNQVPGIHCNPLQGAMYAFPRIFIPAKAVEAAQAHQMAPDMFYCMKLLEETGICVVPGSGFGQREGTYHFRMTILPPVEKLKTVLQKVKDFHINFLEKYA
Assay: Primary qHTS assay for inhibitors of Glutamate pyruvate transaminase 2 (GPT2); note: nearly all actives have a fitted effect of over 60% in size
Settings: Recombinant GPT2, coupled pyruvate oxidase/HRP Amplex Red fluorescence; series mostly up to 57.7 µM
Outline: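 Fluorescence of coupled pyruvate oxidase/HRP/Amplex Red system (50uM Amplex, 30 min, dark) reports pyruvate formed by GPT2. Enzyme reaction: 10ng/uL GPT2, 2mM L-alanine, 250uM a-KG, 30 min room temperature, pH 7.5; 50uM AOA control.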
Potency is the fitted concentration of half-maximal effect; tags give direction and shape of the fitted curve.

SMILES	Potency
COCC(=O)Nc1ccc(-c2c(CC(C)C)nn(-c3ccccc3)c2OC(C)=O)cc1	inconclusive [inhibitor, full curve, poor fit]
COc1ccc(C(=O)NC2CCN(c3cc(-c4ccc(F)cc4)[nH]n3)C2)c(C)c1 (configuration not stated)	inactive
Cc1ccc2c(c1)C(N1CCN(C)CC1)=Nc1cccnc1N2	inactive
FC(F)(F)c1cccc(C2=NOC3(CCCN(Cc4ccccn4)C3)C2)c1 (configuration not stated)	inconclusive [inhibitor, single point]
O=C(C[C@@H]1CC=CCCC(=O)O[C@H](c2ccccc2)CNC1=O)NCc1ccc(Cl)cc1	inconclusive [inhibitor, single point]
COCCCNc1nc(-c2c(C)noc2C)cc2cc(CN(C)C)oc12	inconclusive [inhibitor, single point]
COc1cc(/C=C/C(=O)NCCn2c(C(F)(F)F)cc3ccccc32)cc(OC)c1OC	inactive
CCOC(=O)C1CCCN(C(=O)C2COC3(CCCCC3)N2C(=O)c2cc(F)cc(F)c2)C1 (configuration not stated)	inactive
COc1ccccc1CN1Cc2cc(NC(=O)Cc3cccs3)ccc2OC(C)C1=O (configuration not stated)	inconclusive [inhibitor, partial curve, poor fit]
O=C(O)COCC(=O)N[C@H]1CO[C@H]2[C@@H]1OC[C@@H]2n1nnnc1-c1ccc2c(c1)OCO2	inactive
N#Cc1cccc(CN2C[C@H](O)C[C@H]2c2nc(-c3ccc4c(c3)OCO4)no2)c1	inconclusive [inhibitor, partial curve, poor fit]
O=C(CC1CCCCC1)NC(Cc1ccccc1)C(=O)N1CCN(c2ccccn2)CC1 (configuration not stated)	inconclusive [inhibitor, single point]
Cn1nc(C(=O)NCc2cccnc2)c2c1CN(C(=O)CC1CCCCC1)C2	inactive
Cc1cnc(C2CCOCC2)n1CC1CCN(C(=O)C2CC2)CC1	inconclusive [inhibitor, single point]
COc1cc(-c2ccnc3nc(CCC4CCCC4)nn23)cc(OC)c1OC	inconclusive [inhibitor, partial curve, poor fit]
Cc1cc(CNC(=O)C2CCCCn3nnnc32)c2[nH]c(-c3ccccc3)c(C)c2c1 (configuration not stated)	inactive
CO[C@@H]1[C@H](O)CCC2(CO2)[C@H]1[C@@]1(C)O[C@@H]1CC=C(C)C (some centres not stated)	inconclusive [inhibitor, single point]
COc1ccc(-c2noc([C@@H]3CCCN3C(=O)c3ccc(F)cc3Cl)n2)cc1	inconclusive [inhibitor, partial curve, poor fit]
COc1ccc(C(=O)N2CCC3(CC2)CCN(Cc2cccs2)c2ccccc2O3)cc1	inconclusive [inhibitor, single point]
O=C(Nc1ccccc1)[C@H]1O[C@H](CCN2CCOCC2)CC[C@@H]1O	inconclusive [inhibitor, single point]
CCC(=O)N1CCCCCCNC(=O)[C@@H]2C[C@@H](C(=O)NCCc3c[nH]c4ccccc34)C[C@@H]21	inactive

SMILES	Potency
CCOc1ccc(NC(C)=O)cc1	inactive
CC(C)c1cc(C(=O)N2CC[C@@](O)(C3CCOCC3)[C@H](C)C2)no1	inactive
Cc1cccc(OCC(=O)N2CCC(c3n[nH]c(=O)n3Cc3ccc(F)cc3)CC2)c1	inactive
Cn1cc(CN2C[C@@H](F)[C@@H](OCc3nc4ccc(C(F)(F)F)cc4[nH]3)C2)cn1	inconclusive [inhibitor, single point]
CC(C)n1ccc2c(NC(=O)C[C@H]3NC(=O)c4ccccc4NC3=O)cccc21	inconclusive [inhibitor, partial curve, poor fit]
Cc1cccc(Nc2nc(N[C@@H]3CCCC[C@H]3N)ncc2C(N)=O)c1	inconclusive [inhibitor, single point]
COc1ccc(C(=O)NC2CCN(c3cc(-c4ccccc4)[nH]n3)C2)cc1F (configuration not stated)	inconclusive [inhibitor, single point]
CC(C)(C)c1ccc(CNC(=S)NCc2ccc(NS(C)(=O)=O)c(F)c2)cc1	inconclusive [inhibitor, single point]
CC(C(=O)O)c1ccc(C(=O)c2cccs2)cc1 (configuration not stated)	inconclusive [inhibitor, single point]
CN(Cc1cccnc1)c1ccc2ncc(Nc3cc(F)cc(N4CCOCC4)c3)n2n1	inconclusive [inhibitor, full curve, poor fit]
COc1cccc(C(=O)NC2CCN(c3cn[nH]c(=O)c3)CC2)c1	inactive
CCN1c2cc(C(=O)NCc3cc(F)cc(F)c3)ccc2C(=O)N2CCCCCC21 (configuration not stated)	inactive
O=C(c1nnc(CNc2ccccc2)n1-c1ccccc1)N1CCC[C@@H]1C(c1ccccc1)c1ccccc1	inactive
Cc1cccc(CN2CCCC3(CCN(C(=O)CCc4ccccc4C)C3)C2)c1 (configuration not stated)	inactive
CCn1cc(CN2CCC3(CC2)CC(O)CCO3)c2cc(OC)ccc21 (configuration not stated)	inconclusive [inhibitor, full curve, poor fit]
Nc1cccc2c(N)cccc12	inconclusive [inhibitor, single point]
CCCCN1C(=O)[C@@H]2C[C@@H](O)CN2C2(CN(C3CCC(F)(F)CC3)C2)C1=O	inconclusive [inhibitor, single point]
Cc1cccc(C(=O)Nc2cccc(-c3ccc(N4CCN(C)CC4)nn3)c2)c1	inconclusive [inhibitor, single point]
Cc1nn2c(c1-c1ccccc1-c1ccccc1)N(Cc1ccccc1)CCC2	inactive
Cc1ccc(C2Cn3nnc(C(=O)N4CCC(C(=O)NCCN5CCCC5)CC4)c3CO2)cc1 (configuration not stated)	inactive
CC1=C[C@@H](CNC2CCOCC2)[C@H](C(C)C)C[C@H]1Cc1nc2ccc(Cl)cc2[nH]1	inconclusive [inhibitor, single point]

From PubChem BioAssay AID1671188 (National Center for Advancing Translational Sciences (NCATS), 2021)
